Laboratory results as given in paper PMC6919601, “Identification of Plasmodium dipeptidyl aminopeptidase allosteric inhibitors by high throughput screening” (PLoS ONE, 2019).
Among all 110,000 compounds or so, about 230 (0.21%) showed an effect of 50% or more. Some of the results follow.

Target: DPAP1 (Plasmodium falciparum, UniProt Q8IIJ9)
Assay: primary screen, percent inhibition; read by cleavage of a fluorogenic dipeptide substrate; higher = more effect of the substance
Parameters: species or system P. falciparum D10 trophozoite lysates; single well
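Also: 30 min substrate incubation versus DMSO and 10 µM JCP410 controls.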

Chain of DPAP1 (Q8IIJ9 whole entry, looked up): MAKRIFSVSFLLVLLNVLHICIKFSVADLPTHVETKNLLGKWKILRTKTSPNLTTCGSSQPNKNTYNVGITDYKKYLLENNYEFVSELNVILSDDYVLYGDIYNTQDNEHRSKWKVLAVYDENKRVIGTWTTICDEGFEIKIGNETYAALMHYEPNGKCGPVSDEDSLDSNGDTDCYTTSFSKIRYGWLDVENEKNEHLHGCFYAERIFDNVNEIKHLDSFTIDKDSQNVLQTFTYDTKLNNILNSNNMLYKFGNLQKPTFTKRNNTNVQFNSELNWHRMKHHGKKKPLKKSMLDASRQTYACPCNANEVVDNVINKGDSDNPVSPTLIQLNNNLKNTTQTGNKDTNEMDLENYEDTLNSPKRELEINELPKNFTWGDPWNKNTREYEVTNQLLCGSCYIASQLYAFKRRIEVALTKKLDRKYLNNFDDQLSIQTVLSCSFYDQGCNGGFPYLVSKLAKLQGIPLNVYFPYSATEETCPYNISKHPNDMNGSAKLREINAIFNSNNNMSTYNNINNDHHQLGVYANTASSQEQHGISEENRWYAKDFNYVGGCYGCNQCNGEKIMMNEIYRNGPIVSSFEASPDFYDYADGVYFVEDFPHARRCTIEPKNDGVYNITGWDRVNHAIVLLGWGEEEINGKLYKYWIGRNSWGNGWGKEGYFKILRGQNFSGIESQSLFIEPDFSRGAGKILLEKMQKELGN

| Compound | % Inhibition @ 10 uM [%] |
| --- | --- |
| O=C(Nc1cccc(O)c1)c1nn2c(c1Cl)NC(c1cccs1)CC2C(F)(F)F (centres unmarked) | -2.87 |
| OC(c1ccccc1)(c1ccccc1)c1nccn1Cc1ccccc1 | -0.0505 |
| OCCNCc1ccccc1OCc1ccccc1F | -3.5 |
| CNc1ccc(C(=O)N[C@@H](CC(C)C)C(=O)NCC#N)cc1 | 0.174 |
| COc1ccc(/C=C/C2=NN(c3ccc(Cl)cc3Cl)C(c3ccc(OC)cc3)C2)cc1 (centres unmarked) | -0.999 |
| CC(=O)ON(Cc1c(C)no[n+]1[O-])Cc1c(C)no[n+]1[O-] | -3.41 |
| C=CCNC(=O)/C(=C/c1ccc(Cl)cc1)NC(=O)c1ccccc1 | 2.3 |
| COc1ccc(-c2cc(C(=O)Nc3cc(C)n(CC(=O)NCc4ccco4)n3)on2)cc1OC | 3.27 |
| CCOC(=O)c1c(NC(=O)Nc2nnc(N(C)Cc3ccccc3)s2)sc2c1CCCC2 | 3.87 |
| COc1ccc(C2C3=C(O)CC(C)(C)CC3=NC(C)=C2C(=O)OCc2ccccc2)cc1 (centres unmarked) | 24.6 |
| COc1ccc(OC)c(CCNC(=O)c2cc3ccc4cccnc4c3[nH]2)c1 | -1.79 |
| COc1cc(CN2CCN(S(=O)(=O)c3ccc(C)cc3)CC2)cc(OC)c1OC | 2.26 |
| COc1ccc2sc(N(CCN(C)C)C(=O)c3ccccc3Cl)nc2c1 | 4.64 |
| CC1SC2(C(=O)Nc3ccccc32)N(c2ccc(Cl)cc2)C1=O (centres unmarked) | -3.69 |
| Oc1c2c(nc3c(-c4ccc(Cl)cc4)cnn13)CCCC2 | -1.66 |
| CCc1ccc(-c2nc(SCC(=O)NCCOC)c(-c3ccc(F)cc3)[nH]2)cc1 | 3.48 |
| CCC(C)NC(=O)Cn1ncn2c(cc3cc(F)ccc32)c1=O (centres unmarked) | 0.0198 |
| CCOC(=O)c1cn(CC)c2cc(N3CCOCC3)c(F)cc2c1=O | -3.09 |
| CCN1CCCC1CNC(=O)CCCc1cn(CC)c2ccccc12 (centres unmarked) | 8.58 |
| COc1ccc2nc3c(O)n(C)cnc-3c2c1 | -5.48 |
| COc1ccc(CNC(=O)c2sc3nc4c(c(C(F)(F)F)c3c2N)CN(C(C)=O)CC4)cc1 | -8.43 |
| O=C(CSc1nnnn1-c1ccccc1)NCCC12CC3CC(CC(C3)C1)C2 | -3.04 |
| CC(C)CCNC(=O)c1cc(C2CC2)[nH]n1 | 5.29 |
| Cc1nn(C(=O)CCC(=O)NC2CCCC(C)C2C)c2ccccc12 (centres unmarked) | 6.89 |
| Cc1ccc(S(=O)(=O)Nc2ccc3oc(=O)sc3c2)c(C)c1 | -6.65 |

| Compound | % Inhibition @ 10 uM [%] |
| --- | --- |
| CC(CNC(=O)c1ccc(S(=O)(=O)N(C)C)cc1)OC12CC3CC(CC(C3)C1)C2 (centres unmarked) | 0.9 |
| CCOC(=O)N1CCC(NCc2c(C(=O)O)c(C)n(Cc3ccc(C)cc3)c2C)CC1 | -5.49 |
| COc1ccccc1CNc1nc2ccccc2n2nnnc12 | 1.3 |
| Cc1nc(=O)c(-c2ccccc2)c(C)n1-c1ccc(O)cc1 | 2.81 |
| Cc1cnc(-c2ccc(Br)cc2)nc1 | -2.12 |
| Fc1ccc(CNCc2ccncc2)cc1 | -1.72 |
| Cc1ccc(OCC(=O)N(Cc2ccccc2F)C2CCS(=O)(=O)C2)cc1C (centres unmarked) | -1.35 |
| COc1ccc(C(=O)/C=C/c2c[nH]c3ccc(Br)cc23)cc1 | 6.8 |
| Clc1nc(-c2ccccn2)cc2ccccc12 | 3.05 |
| Cc1c(C(=O)N2CCCC2)oc2c1-c1nn(CC(=O)N3CCN(C)CC3)cc1CC2 | -1.67 |
| CCOC(=O)c1conc1-c1ccc(CC)cc1 | -1.56 |
| O/N=C(\CCc1ccccc1)C1(O)CCCCC1 | 3.06 |
| C=C(C)[C@@H]1CC=C(CN(CC(C)O)CC(C)O)CC1 (some centres unmarked) | 1.74 |
| CCOC(=O)C1=C(CC)OC(N)=C(C#N)C1c1ccc2ccccc2c1 (centres unmarked) | -1.93 |
| COc1cc(CN(CCCN(C)C)CCCN(C)C)ccc1OCc1ccccc1 | 3.24 |
| Nc1c(C(=O)NCc2ccccc2)c2nc3ccccc3nc2n1Cc1ccco1 | 3.38 |
| Oc1nc2ccccc2c2ocnc12 | 6.5 |
| Cc1ccc(C2C(C#N)=C(N)OC3=C2C(=O)CC(C)(C)C3)o1 (centres unmarked) | 5.58 |
| CN1CCN(C(=O)c2cnn(-c3ccccc3Cl)c2C2CCN(C(=O)OC(C)(C)C)CC2)CC1 | 2.09 |
| COc1ccc(OCC(=O)Nc2ccc(S(=O)(=O)Nc3cccc(Cl)c3Cl)cc2)cc1 | 2.84 |
| COc1ccccc1N1CCN(C(=O)CN2C(=O)c3cccc4cccc2c34)CC1 | -4.7 |
| COc1cc(C(=O)NCC(c2cccnc2)N2CCN(C)CC2)cc(OC)c1OC (centres unmarked) | -2.29 |
| CC1S[C@@H](C(=O)NCC#N)CN1C(=O)OCc1ccccc1 (some centres unmarked) | -4.82 |
| CCN(CC)CCNc1ncnc2sc3c(c12)CCC(C)C3 (centres unmarked) | -2.65 |
| COc1ccc(C2C3=C(O)CCCC3=NC(C)=C2C(=O)OC2CCCC2)c(OC)c1OC (centres unmarked) | 7.24 |

| Compound | % Inhibition @ 10 uM [%] |
| --- | --- |
| Cc1ccc(-c2nc(SCC(=O)NCC3CCCO3)c(-c3ccccc3)[nH]2)cc1 (centres unmarked) | 6.59 |
| CCOCCCNC(=O)c1cc2c(s1)-c1ccccc1OC2 | -8.58 |
| COc1ccc(-n2nc3c(N4CCC(C(=O)NCc5ccco5)CC4)nnc(C)c3c2C)cc1 | -1.05 |
| CCOC(=O)C1=CN(C(C)C)C=C(C(=O)OCC)C1c1ccc(OC)cc1OC | 0.219 |
| CCOC(=O)c1cn(CC)c2cc(N3CCSCC3)c(F)cc2c1=O | -3.09 |
| Cc1ccc(NC(=O)CSc2n[nH]c(-c3cccc(Br)c3)n2)cc1 | 2.15 |
| CCOc1ccc(NC(=O)c2cccc([N+](=O)[O-])c2C)cc1 | -2.82 |
| O=C1CC(c2ccc(Cl)cc2)NC(NC(=O)c2ccc(Oc3ccccc3)cc2)=N1 (centres unmarked) | 0.0603 |
| COc1ccc(S(=O)(=O)N(CC(=O)NCC2CCCO2)c2ccc(Cl)cc2)cc1 (centres unmarked) | 2.01 |
| COc1ccc(C2C(C#N)=C(N)Oc3[nH]nc(-c4cccs4)c32)cc1O (centres unmarked) | -1.38 |
| Oc1ccc(Cl)cc1-c1nc2ccccc2s1 | -5.33 |
| CCOC(=O)c1c(NC(=O)N(Cc2ccc(C)o2)C2CCN(C(C)=O)CC2)sc2c1CCCC2 | 3.7 |
| S=C1NCN(CCc2ccccc2)CN1CCCN1CCOCC1 | -3.74 |
| Cc1ccc(C)n1-c1nnc(N2CCC(C(=O)NC3CCCc4ccccc43)CC2)s1 (centres unmarked) | -2.25 |
| COc1ccc(C(=O)Cn2c(N3CCCCCC3)nc3c2c(=O)n(C)c(=O)n3C)cc1 | 2.29 |
| CCOc1cc2c(cc1OCC)C(c1ccc(OC)cc1F)NCC2 (centres unmarked) | 5.25 |
| Cc1cc(C)c(S(=O)(=O)Nc2ccccc2Cl)c(C)c1 | -1.7 |
| CCOCCCNC(=O)CCc1nnc2n(CCC(C)C)c(=O)c3ccccc3n12 | -6.95 |
| Oc1c2c(nc3cc(-c4ccco4)nn13)CCC2 | -2.2 |
| Cc1nnc(N2CCCC(C(=O)NCc3ccccn3)C2)c2nn(-c3ccc(Cl)cc3)c(C)c12 (centres unmarked) | 5.52 |
| Cc1ccc(-c2nc(/C=N/c3cccc(C)n3)c(O)o2)cc1 | -9.38 |
| CCCc1nn(C)c2c(O)nc(-c3ccccc3OCC)nc12 | 0.231 |
| Cc1cc(C(=O)NCCc2c[nH]c3ccccc23)c2c(C)nn(-c3ccccc3Cl)c2n1 | 0.44 |
| COc1ccc(OC)c(CN2CCN(c3cccc(Cl)c3)CC2)c1 | 0.605 |
| CC(C)OCCCNC(=O)CSc1c2c(nc3cc(Cl)ccc13)CCCC2 | -9.07 |

| Compound | % Inhibition @ 10 uM [%] |
| --- | --- |
| O=C(c1ccccc1)c1ccccc1C(=O)N1CCCCC1 | 4.55 |
| COc1cccc(-c2nnc3n(CCc4ccccc4)c(=O)c4ccccc4n23)c1OC | 1.68 |
| CCOCCCNC(=O)c1sc2nc(C)cc(C)c2c1-n1cccc1 | -4.68 |
| CCOCCCn1nnc2c(O)nc(C(=O)NCc3cccc(Cl)c3)nc21 | -7.46 |
| CC1=C(C)CC(C(=O)Nc2ccc3c(c2)oc2ccccc23)C(C(=O)O)C1 (centres unmarked) | -6.24 |
| Cc1cc(NC(=O)c2sc3nc4c(cc3c2N)CC(C)CC4)no1 (centres unmarked) | 2.95 |
| C#CCOc1nc(OCC#C)nc(N2CCOCC2)n1 | 0.558 |
| COC(=O)c1ccc(CS(=O)(=O)c2c(Cl)cccc2Cl)o1 | -0.256 |
| O=C(O)c1c(CNCCCN2CCOCC2)c2ccccc2n1Cc1ccc(F)cc1Cl | -5.05 |
| Cc1cc(C)nc(N2CCC(NC(=O)NC34CC5CC(CC(C5)C3)C4)CC2)n1 | 2.25 |
| CCOc1ccccc1C1CC(=O)Nc2cc3c(cc21)OCO3 (centres unmarked) | 5.15 |
| O=C(c1ccccc1Cl)N1CCCC(c2nc(O)c3nnn(Cc4ccco4)c3n2)C1 (centres unmarked) | -4.07 |
| CCn1c(C)c(C)c2cc(C(=O)NCc3ccccc3Cl)ccc21 | -2.46 |
| CC1SC(c2ccccc2)N(CC(O)c2ccc([N+](=O)[O-])cc2)C1=O (centres unmarked) | -6.99 |
| Cc1cccc(NC(=N)Nc2nc(O)c3c(n2)CCCC3)c1 | -6.05 |
| COc1cc(C)c(/C=C/C(C)=O)c(C)c1C | -6.46 |
| O=C(NCCc1ccc(Cl)cc1)C1CCCN(S(=O)(=O)N2CCC3(CC2)OCCO3)C1 (centres unmarked) | -1.97 |
| CC(=O)c1ccc(Nc2ncnc(Nc3ccc(C(C)=O)cc3)c2[N+](=O)[O-])cc1 | 1.04 |
| Cc1cc(CN2CCCC(O)C2)c(C)n1-c1cccc(C(F)(F)F)c1 (centres unmarked) | 1.57 |
| COc1ccc(-n2c(CCC(=O)O)ccc2-c2ccc(F)cc2)c(OC)c1 | -2.14 |
| COc1cc(C(=O)N2CCN(C(=O)c3cc(-c4ccc(Cl)cc4)[nH]n3)CC2)cc(OC)c1OC | -3.77 |
| Cc1ccc(OCC(=O)N2CCCc3ccccc32)cc1 | -2.3 |
| COc1ccc(-c2nnc(NC(=O)c3ccc(F)cc3)s2)cc1 | 5.94 |
